# Laboratory results published in PubChem BioAssay AID1347073 (National Center for Advancing Translational Sciences (NCATS), 2019).
# About 200 (0.44%) of roughly 45,000 compounds were called active. Roughly 7% stayed inconclusive and do not appear here. The call rests on the fitted dose curve; in most records, active means well fitted activation curve with a large enough effect; inconclusive means small, poorly fitted or top-dose-only effect; inactive means no such curve, though single readings can be large or run the other way. This is one part of the list.
# Assay: qHTS of TDP-43 Inhibitors: NCGC Sytravon Library Screen; further: 0% is about no effect; nearly all actives have a fitted effect of over 55% in size
# Details: yeast TDP-43 toxicity rescue, BacTiter-Glo growth, 24 h; series mostly up to 46.1 µM; growth rescue (activation): at the top concentration
# Outline: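 TDP-43-expressing yeast, pregrown in raffinose, seeded at OD600 0.02 in galactose medium with compound for 24 hr at 30 deg C. Growth read by BacTiter-Glo luminescence, so rescue of toxicity appears as activation.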
row,SMILES,growth rescue (activation)
1,CN(Cc1ccon1)Cc1cn(C)nc1-c1ccc(Oc2ccccc2)cc1,inactive: 10.9%
2,CCCCCCn1cnc2c(c1=O)c1nc3ccccc3nc1n2/N=C/c1ccco1,inactive: 5.2%
3,O=C(COc1ccccc1)Nc1ccncc1,inactive: 27%
4,COc1ccc(CNC(=O)COC(=O)/C=C/c2cccc(Br)c2)cc1OC,inactive: 9.21%
5,COc1ccc(Cl)cc1-c1cc(C(=O)NCc2ccc(C(F)(F)F)cc2)[nH]n1,inactive: 10.6%
6,Cc1ccccc1-n1nc(-c2cccnc2)cc1C(=O)N/N=C/c1ccncc1,inactive: 18.7%
7,COc1ccc(NC(=O)COC(=O)CCNS(=O)(=O)c2ccccc2)cc1OC,inactive: 4.94%
8,CC(NC(=O)/C(C#N)=C/c1cn(-c2ccccc2)nc1-c1ccc(F)cc1)c1ccccc1 (configuration not stated),inactive: -22.3%
9,Cc1ccc(OCC(=O)NCCNC(=O)c2ccncc2)cc1,inactive: -0.457%
10,COc1ccccc1N1CCN(c2ccc([N+](=O)[O-])cn2)CC1,inactive: 14.2%
11,CCc1ccc(OCc2nnc(SCC(=O)NCC3CCCO3)n2C)cc1 (configuration not stated),inactive: 2.24%
12,CC1CCCCC1NC(=O)CCCCCn1c(=S)[nH]c2ccccc2c1=O (configuration not stated),inactive: 9.39%
13,Clc1cccc(N2CCN(c3c4c(nc5nncn35)CCC4)CC2)c1,inactive: 15.7%
14,C=CCn1c(C(c2ccccc2)c2ccccc2)n[nH]c1=S,inactive: 18.6%
15,COc1ccc2nc(N=NC3=C(O)CC(C)(C)CC3=O)sc2c1,inactive: 5.73%
16,COc1ccc(NC(=O)COC(=O)c2ccc(OCc3ccc(Cl)cc3Cl)c(OC)c2)c(OC)c1,inactive: 17.1%
17,CC1(C(=O)NS(=O)(=O)c2ccc(F)cc2F)CCN1C(=O)C/C=C/c1ccccc1 (configuration not stated),inactive: -3.22%
18,CC1CN(CC(O)COC(c2ccc(Cl)cc2)c2ccc(Cl)cc2)CC(C)O1 (configuration not stated),inactive: 19.4%
19,COC(=O)CN(c1cc([N+](=O)[O-])ccc1OC)S(C)(=O)=O,inactive: -3.11%
20,O=C(O)CCCN1C(=O)c2ccc(C(=O)c3cccc([N+](=O)[O-])c3)cc2C1=O,inactive: 0.792%
21,Cc1onc(-c2c(F)cccc2Cl)c1C(=O)OCN1C(=O)c2ccccc2C1=O,inactive: -5.17%
22,CCOc1ccc(CC(=O)NNC(=O)/C=C/C(=O)O)cc1,inactive: -8.41%
23,Cc1cc(NC(=O)COC(=O)CCS(=O)(=O)c2cc(Cl)ccc2Cl)no1,inactive: 2.87%

row,SMILES,growth rescue (activation)
1,Cn1c(SCc2cccc(F)c2)nnc1-c1ccncc1,inactive: 20.1%
2,CCOC(=O)c1c(CSc2ccc(CC)cc2)oc2ccc(O)c(CN(C)C)c12,inactive: 8.36%
3,O=S(=O)(/N=C(/Nc1cccc2ccccc12)c1ccccc1)c1cccs1,inactive: 28.3%
4,COc1c(Cl)cnn(-c2ccccc2)c1=O,inactive: -4.54%
5,Cc1ccc(S(=O)(=O)N(CC(=O)NCc2ccncc2)Cc2ccc(F)cc2)cc1,inactive: -14.9%
6,CCOC(=O)CCC(=O)N(CCN(C(=O)CCC(=O)OCC)c1ccccc1)c1ccccc1,inactive: 10.6%
7,O=C(/C=C/Nc1ccc(F)c(Cl)c1)c1ccco1,inactive: 24.8%
8,O=C(COc1cc(O)c2c(=O)c3ccccc3oc2c1)OCc1ccccc1,inactive: -1.62%
9,O=C(NCCc1c[nH]c2ccccc12)C1CCN(S(=O)(=O)c2ccc(F)cc2)CC1,inactive: 3.25%
10,N#Cc1ccccc1NC(=O)CSc1cn[nH]n1,inactive: 2.86%
11,COc1cccc(C2c3[nH]c4ccccc4c3CCN2C(=O)Cn2cncn2)c1OC (configuration not stated),inactive: 6.35%
12,COc1ccc(N(CC(=O)NC2CC3CCC2C3)S(=O)(=O)c2ccc(C)cc2)cc1OC (configuration not stated),inactive: -2.34%
13,CCOC(=O)C1CCCN(C2=NC(=O)/C(=C/c3ccc(O)c(OCC)c3)S2)C1 (configuration not stated),inactive: 17.3%
14,Cc1cc2oc(=O)c(CC(=O)NCCCN(C)C)c(C)c2c2occ(C(C)(C)C)c12,inactive: -6.1%
15,CSc1ccc(C(=O)C2CCCN(Cc3ccc(N4CCNC4=O)cc3)C2)cc1 (configuration not stated),inactive: 7.04%
16,CCOC(=O)C1(CCOC)CCN(C(=O)c2ccccc2-c2cccc(C)c2)CC1,inactive: 12.7%
17,COc1ccc(-c2cnc3c(NC=O)cc(-c4cccc(NS(C)(=O)=O)c4)cn23)cc1OC,inactive: 2.38%
18,CC(C)CNC(CC(=O)Nc1cccc([N+](=O)[O-])c1)C(=O)O (configuration not stated),inactive: 22%
19,O=C1CCC(C(=O)N2CCCCO2)CN1Cc1ccc(Cl)cc1 (configuration not stated),inactive: -2.91%
20,Cc1cc2oc(C(=O)NCCc3ccc(S(N)(=O)=O)cc3)cc(=O)c2cc1C,inactive: -4.36%
21,O=C(COC(=O)CCOc1ccccc1)NCCC1=CCCCC1,inactive: -3.42%
22,CC(=O)Nc1ccc(Nc2nc(-c3sc(NC(C)=O)nc3C)cs2)cc1,inactive: 4.36%
23,CN(Cc1ccccc1)C(=O)COC(=O)c1ccc[nH]c1=O,inactive: -10.1%

row,SMILES,growth rescue (activation)
1,O=C(CN1CCN(S(=O)(=O)c2ccc(Br)cc2)CC1)N/N=C/c1cccnc1,inactive: 7.9%
2,O=C(N/N=C/c1ccccn1)c1cc(C2CC2)[nH]n1,inactive: 8.39%
3,O=C(NCCS(=O)CCNC(=O)C(F)(F)F)C(F)(F)F,inactive: 9.5%
4,Cc1ccc(NCC(=O)N=Nc2c(O)[nH]c3ccc([N+](=O)[O-])cc23)cc1,inactive: -13.3%
5,CCC(c1nnc(SCC(=O)Nc2ccc(S(N)(=O)=O)cc2)n1Cc1ccccc1)N(C)C (configuration not stated),inactive: -6.82%
6,COc1cc(CCC(=O)OCC(=O)Nc2ccc(F)c(F)c2F)cc(OC)c1OC,inactive: 8.93%
7,O=c1c(-c2ccc([N+](=O)[O-])cc2)coc2c(O)c(O)ccc12,inactive: -5.72%
8,O=C(NCc1ccccc1)C1CCCN(C(=O)NCc2ccccc2)C1 (configuration not stated),inactive: 8.42%
9,O=c1c2ccccc2sc2ccc(Cl)cc12,inactive: -4.59%
10,Cc1cc(C)cc(NC(=O)C(c2ccccc2)N2CCCC2)c1 (configuration not stated),inactive: 4.95%
11,COc1ccc(C(c2c(NC(=O)c3ccco3)sc(C)c2C)N2CCOCC2)cc1 (configuration not stated),inactive: 14.3%
12,CCC(NS(=O)(=O)c1ccc(OC)cc1)C(=O)NCCc1ccccc1 (configuration not stated),inactive: 13.3%
13,CCN1CCCC1CN(Cc1cc2ccc(C)cc2[nH]c1=O)C(=S)Nc1cccc(OC)c1 (configuration not stated),inactive: -21.3%
14,O=C(CCSc1nc(-c2ccco2)cc(C(F)(F)F)n1)NCC1CCCO1 (configuration not stated),inactive: 17.1%
15,CCOC(=O)c1cc(-c2ccccc2)n(CCC(=O)N2CCN(c3ccccn3)CC2)c1C,inactive: 3.47%
16,NC(=O)CSc1ccc(F)cc1,inactive: 9.59%
17,COc1ccc(CCNCc2c(-c3ccccc3)n(C)c3ccccc23)cc1,inactive: -0.0813%
18,NC(=O)C1CCN(c2nc3ccccc3nc2NS(=O)(=O)c2ccc(Br)cc2)CC1,inactive: 6.35%
19,COC(=O)c1ccc(CC2(C)C(=O)Nc3ccc(OC(F)(F)F)cc32)o1 (configuration not stated),inactive: -6.69%
20,O=C(O)CCn1c(-c2ccccn2)nc2ccccc21,inactive: 0.438%
21,O=C(O)c1csc(Cc2ccccc2)n1,inactive: 6.15%
